Measurements: patent publication US20250195501A1, “CELL ENTRY-MODULATING AGENTS AND USES THEREFOR” (priority 2020, published 2025)

Target: recombinant human ACE2 (Homo sapiens, UniProt Q9BYF1)
Type: binding
Design: purchased R&D Systems and Assay Matrix
Conditions: SPR, Biacore S200, 25° C., PBS, single cycle kinetics, immobilized human ACE2

SMILES: CCc1c2c(nc3ccc(OC(=O)N4CCC(N5CCCCC5)CC4)cc13)-c1cc3c(c(=O)n1C2)COC(=O)[C@]3(O)CC [Irinotecan]
- Kd: 0.825 ± 0.112 µM

SMILES: CC1(C)CCC(CN2CCN(c3ccc(C(=O)NS(=O)(=O)c4ccc(NCC5CCOCC5)c([N+](=O)[O-])c4)c(Oc4cnc5[nH]ccc5c4)c3)CC2)=C(c2ccc(Cl)cc2)C1 [Venetoclax]
- Kd: 0.291 ± 0.0311 µM
